The full ranking holds about 33,000 sequences; the median of “E-score (-0.5 to 0.5)” is about -0.032, and the highest 2% start at about 0.36. The list shows a part of the results.
These sequences were tested against T1, Sko1 (UniProt Q02100) (assay: PBM E-score (8-mer binding enrichment) (E-score (-0.5 to 0.5)); higher = stronger / more preferred TF binding; most listed sequences are background and not binding sites). Settings: protein concentration: 200 nM; construct: GST-full length.
T1 sequence: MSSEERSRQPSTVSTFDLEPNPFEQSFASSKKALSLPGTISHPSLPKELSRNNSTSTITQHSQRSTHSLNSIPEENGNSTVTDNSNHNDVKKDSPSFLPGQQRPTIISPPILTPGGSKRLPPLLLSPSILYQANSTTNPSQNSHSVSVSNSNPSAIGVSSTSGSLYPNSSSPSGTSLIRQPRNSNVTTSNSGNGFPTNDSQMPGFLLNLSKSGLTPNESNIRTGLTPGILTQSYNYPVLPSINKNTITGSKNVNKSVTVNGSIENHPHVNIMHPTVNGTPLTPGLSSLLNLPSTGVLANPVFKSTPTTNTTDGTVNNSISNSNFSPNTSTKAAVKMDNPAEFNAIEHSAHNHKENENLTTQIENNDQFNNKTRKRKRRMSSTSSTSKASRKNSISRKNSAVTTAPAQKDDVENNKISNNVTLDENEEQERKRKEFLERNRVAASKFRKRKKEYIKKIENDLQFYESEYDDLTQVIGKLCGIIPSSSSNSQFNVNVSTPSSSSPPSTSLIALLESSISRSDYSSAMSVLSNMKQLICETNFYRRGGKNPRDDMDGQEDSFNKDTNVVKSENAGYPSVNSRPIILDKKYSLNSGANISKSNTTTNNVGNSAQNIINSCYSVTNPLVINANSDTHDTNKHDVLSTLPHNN
Experimental: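 Universal 'all 10-mer' protein binding microarrays (Agilent AMADID 015681) probed with GST-tagged S. cerevisiae TFs (full-length or DBD) made by in vitro transcription/translation (PURExpress), about 100-200 nM. Bound TF was detected with fluorescent anti-GST. Each ungapped 8-mer (which stands for itself and its reverse complement) is scored by the PBM enrichment score (E-score), a modified Wilcoxon-Mann-Whitney statistic from -0.5 to +0.5, computed with the Universal PBM Analysis Suite. Scale: above 0.35 generally sequence-specific binding.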

Point of comparison: GTTTCGCA, “PBM E-score” value -0.00662. Against it:
- ATCAGAGA — higher, -0.00493
- ACGCACCA — higher, 0.201
- TACTATCA — higher, 0.04
- CATATACC — lower, -0.0988
- GGGGCAGA — lower, -0.132
- ACCCGCGT — lower, -0.00843
- AGCCTCTA — lower, -0.256
- CCCACCCC — lower, -0.0513
- CAGAGTGC — lower, -0.0625
- AATAAACG — higher, 0.265
- AGATATTC — higher, 0.0644
- ACATCTTG — lower, -0.0418
- AGGAGCAC — lower, -0.172
- CATGTGTA — higher, 0.0165
- AGGCCAAG — lower, -0.225
- AACAGGGA — lower, -0.0465
- CGAATGCA — higher, 0.203
- ACTTGCTG — higher, 0.0473
- ACGGCCTC — lower, -0.257
- GTTTACAA — higher, 0.19
- TCCGCCAA — lower, -0.0213
- CTCATTAC — higher, 0.33
- GGCATGCA — higher, 0.0671
- AACCCTAC — lower, -0.111
- ATTATACG — higher, 0.299
- ATGGACCC — lower, -0.151
- GGCTCGTA — higher, 0.103
- TCCTCTAA — lower, -0.0691
- TAGGGTGA — higher, 0.035
- CCAGACAA — lower, -0.182
- TACTACGA — higher, 0.276
- TAACCCGA — lower, -0.139
- CTACCCTA — lower, -0.0649
- CCGAGTAA — lower, -0.0722
- CTGAAGAC — lower, -0.129
- GACTGCAC — lower, -0.14
- GGTCACAC — lower, -0.0911
- ACGACTTA — higher, 0.143
- CGGAGATA — lower, -0.0481
- AGGAGCTA — lower, -0.0523
- AGTCCAGA — lower, -0.14
- ATCCCGTA — higher, 0.166
- AAGGGATC — lower, -0.146
- CAGCACCG — lower, -0.198
- ACAAATAC — higher, 0.197
- ATCGGGAC — lower, -0.0632
- CGTCTCCA — higher, 0.201
- CGCAAATA — higher, 0.201
- CCCTCACC — lower, -0.152
- GATTTCAC — higher, 0.17
- GCCGCCAA — lower, -0.276
- GGGCGTCA — higher, 0.223
- ACGAAATC — higher, 0.277
- AGCGATCG — lower, -0.0389
- CAATCGCC — lower, -0.105
- ATCAGCAC — higher, 0.0773
- AATTCAAT — higher, 0.185
- GAACATGC — lower, -0.0874
- AGTCGAAC — lower, -0.0653
- ACCCAATA — higher, 0.00792
- CAACACAA — higher, 0.171
- ATAACATG — higher, 0.117
- AGCGCTGC — lower, -0.167
- TGGGGTAA — lower, -0.142
- AATGGGCT — lower, -0.0428
- GCGCGGCC — lower, -0.0613
- CATGCGCA — higher, 0.145
- ACGCCCTG — lower, -0.0628
- CCGACGCA — higher, 0.0873
- AACCGGAA — lower, -0.192
- CCGCGTCG — lower, -0.127
- AAGAGGGG — lower, -0.279
- GCTTTAAA — lower, -0.0875
- GATAATAC — higher, 0.169
- ATACATAT — higher, 0.29
- AATGTAAG — higher, 0.153
- ACGCAGGA — higher, 0.0876
- GCGCCCAC — lower, -0.058
- AGAGGGCA — lower, -0.237
- ACGAAACT — higher, 0.215
- CGCAGCGC — lower, -0.0261
- ATTCGTCC — higher, 0.119
- ATATACGA — higher, 0.276
- ATAGCGAC — higher, 0.0478
- ACATGTCT — higher, 0.0949
